{"source": "PubChem BioAssay AID588342", "about": "(National Center for Advancing Translational Sciences (NCATS), 2011)", "note": "In all, about 360,000 compounds went through this assay and about 25,000 (6.9%) were called active. This list was built around the results that the source calls inconclusive (neither active nor inactive); the mix of calls is not that of the screen. Calls come from the whole dose curve; as a rule, active = well fitted inhibition curve with a large enough effect; inconclusive = small, poorly fitted or top-dose-only effect; inactive = flat fitted curve, though single readings scatter. A potency beside an inconclusive call is a rough fit, not a confirmed value. Potency is the fitted concentration of half-maximal effect; tags give direction and shape of the fitted curve.", "data": [{"target": "Luciferin 4-monooxygenase (Photinus pyralis) (UniProt P08659)", "sequence (P08659 whole entry, looked up)": "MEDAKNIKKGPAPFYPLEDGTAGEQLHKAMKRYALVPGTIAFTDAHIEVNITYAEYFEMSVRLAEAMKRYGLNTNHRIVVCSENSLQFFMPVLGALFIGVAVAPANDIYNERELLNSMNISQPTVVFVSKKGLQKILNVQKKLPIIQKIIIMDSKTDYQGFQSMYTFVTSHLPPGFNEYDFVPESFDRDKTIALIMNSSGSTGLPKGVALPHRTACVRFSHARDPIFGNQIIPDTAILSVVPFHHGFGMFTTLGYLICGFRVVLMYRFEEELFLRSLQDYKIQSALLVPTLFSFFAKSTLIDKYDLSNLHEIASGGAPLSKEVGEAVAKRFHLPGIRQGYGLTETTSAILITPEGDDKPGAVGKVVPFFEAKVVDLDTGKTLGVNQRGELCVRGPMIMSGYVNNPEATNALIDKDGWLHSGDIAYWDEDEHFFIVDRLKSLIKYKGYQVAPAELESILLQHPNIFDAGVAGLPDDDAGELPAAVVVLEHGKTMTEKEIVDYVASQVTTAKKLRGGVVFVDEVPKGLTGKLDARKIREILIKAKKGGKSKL", "experiment": "qHTS profiling assay for firefly luciferase inhibitor/activator using purifed enzyme and Km concentrations of substrates (counterscreen for miR-21 project); note: nearly all actives have a fitted effect of over 55% in size;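 for activity change, negative = inhibition: plate controls were vehicle for no effect and reference inhibitor for full effect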", "conditions": "purified FLuc, luminescence inhibition; series mostly up to 57.5 µM; activity change, negative = inhibition: at the top concentration", "procedure,_shortened": "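Purified P. pyralis luciferase (10nM final) with 10uM D-luciferin and 10uM ATP (Km levels) in 50mM Tris acetate pH 7.5, 10mM Mg acetate, 0.01% Tween-20, 0.05% BSA; qHTS 6-point titration, ~60 µM downward; luminescence read.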", "values": [{"molecule": "Cc1ccc(-n2ncc3c(N(C)C)ncnc32)cc1Cl", "Potency": "active: 0.757 µM"}, {"molecule": "CCC(Sc1nc(-c2ccccc2)[nH]c1S(=O)(=O)c1ccc(C)cc1)C(=O)O", "note": "(stereo unspecified)", "Potency": "inconclusive: 15.1 µM [inhibitor, partial curve]"}, {"molecule": "CC(=O)Nc1cccc(NC(=O)c2ccc3c(c2)CCN3S(C)(=O)=O)c1", "Potency": "inconclusive: 26.9 µM [inhibitor, single point]"}, {"molecule": "CCOc1ncccc1C(=O)Nc1cccc(-c2nnc3n2CCCCC3)c1", "activity change, negative = inhibition": "inactive: 3.91%"}, {"molecule": "NC(=O)c1c(-c2cccs2)csc1N", "Potency": "inconclusive: 26.9 µM [inhibitor, partial curve, poor fit]"}, {"molecule": "Cn1nc(/C=C/c2ccccc2)ccc1=O", "Potency": "inconclusive: 23.9 µM [inhibitor, single point]"}, {"molecule": "CCOC(=O)C(=CNc1cc(Cl)c(-c2ccco2)c(Cl)c1)C(=O)OCC", "Potency": "inconclusive: 21.3 µM [inhibitor, partial curve, poor fit]"}, {"molecule": "O=C1C2C(C(=O)N1/N=C/c1ccco1)C1C=CC2C12CC2", "note": "(stereo unspecified)", "Potency": "inconclusive: 21.3 µM [inhibitor, single point]"}, {"molecule": "COc1ccc(C(c2c(NC(=O)c3ccccc3)sc(C)c2C)N2CCN(CCO)CC2)cc1", "note": "(stereo unspecified)", "Potency": "inconclusive: 23.9 µM [inhibitor, partial curve, poor fit]"}, {"molecule": "CCCn1nnc(NC(=O)c2cccc(OCC(C)C)c2)n1", "Potency": "inconclusive: 15.1 µM [inhibitor, partial curve]"}, {"molecule": "Cc1c(C(=O)NCC2CCCO2)oc2ccc(S(=O)(=O)N3CCCCC3)cc12", "note": "(stereo unspecified)", "activity change, negative = inhibition": "inactive: 5.25%"}, {"molecule": "O=C(Nc1cccc(S(=O)(=O)NC2=NCCCCC2)c1)c1cc(-c2ccc(Cl)cc2)nc2ccccc12", "Potency": "inconclusive: 21.3 µM [inhibitor, partial curve]"}, {"molecule": "COc1ccc(N2CCN(C(=O)C3CCN(S(=O)(=O)c4cccc5nonc45)CC3)CC2)cc1", "activity change, negative = inhibition": "inactive: -3.14%"}, {"molecule": "Cc1ccc(O)c(C(=O)c2coc(=N)c(C(=O)NC(C)C)c2)c1", "activity change, negative = inhibition": "inactive: -1.43%"}, {"molecule": "CCN1C(=O)[C@H]2[C@@H](c3ccc(-c4ccc(OC)cc4)cc3)N[C@@](Cc3ccccc3)(C(=O)OC)[C@H]2C1=O", "Potency": "inconclusive: 37.9 µM [inhibitor, single point]"}, {"molecule": "COc1cc(C=O)ccc1OCC(=O)Nc1ccc2c(c1)OCO2", "Potency": "inconclusive: 8.49 µM [inhibitor, partial curve, poor fit]"}, {"molecule": "COc1cccc2cc(C(=O)Nc3ccccc3Cl)/c(=N/NS(=O)(=O)c3ccccc3)oc12", "activity change, negative = inhibition": "inactive: -1.94%"}, {"molecule": "O=C(NNC(=O)c1cc2cc3ccccc3nc2s1)c1ccc(F)cc1", "Potency": "inconclusive: 3.38 µM [inhibitor, partial curve, poor fit]"}, {"molecule": "CCN(CC)CCN1C(=O)C2C(C(=O)Nc3cccc(SC)c3)C3C=CC2(O3)C1C(=O)NC1CCCC(C)C1C", "note": "(stereo unspecified)", "activity change, negative = inhibition": "inactive: 2.3%"}, {"molecule": "COc1cccc2sc(NC(=O)c3ccc(S(=O)(=O)N4CCC(C)CC4)cc3)nc12", "Potency": "inconclusive: 6.01 µM [inhibitor, full curve]"}, {"molecule": "COc1ccc(CCCC(=O)N/N=C/c2ccc(C)cc2)cc1", "Potency": "inconclusive: 26.9 µM [inhibitor, partial curve, poor fit]"}, {"molecule": "OCC[C@H]1C[C@H](O)[C@@H](O)[C@@]2(OCCCc3ccccc32)O1", "activity change, negative = inhibition": "inactive: 2.53%"}, {"molecule": "CCc1nc2c(c(=O)c3ccccc3n2C)c(=O)n1-c1ccc(F)cc1", "Potency": "inconclusive: 21.3 µM [inhibitor, single point]"}, {"molecule": "CN1/C(=C\\C=C2\\N=C(c3ccc(F)cc3)OC2=O)C(C)(C)c2ccccc21", "activity change, negative = inhibition": "inactive: -15.8%"}, {"molecule": "CC(C)(C)c1ccc(C(=O)c2c[nH]c(C(=O)NCCCN3CCOCC3)c2)cc1", "Potency": "inconclusive: 3.01 µM [inhibitor, partial curve, poor fit]"}, {"molecule": "COc1ccc2cc(/C=C/C(=O)N3CCN(CC(=O)N4CCCCCC4)CC3)ccc2c1", "Potency": "inconclusive: 23.9 µM [inhibitor, single point]"}, {"molecule": "CS(=O)(=O)c1ccc2nc(NC(=O)CC3CCCC3)sc2c1", "Potency": "inconclusive: 30.1 µM [inhibitor, partial curve, poor fit]"}, {"molecule": "CC1(C)CC(=O)c2c(O)cc(OCC(=O)Nc3ccc(CCO)cc3)cc2O1", "Potency": "inconclusive: 21.3 µM [inhibitor, partial curve, poor fit]"}, {"molecule": "Cc1ncoc1C(=O)N1CCCC(C(=O)Nc2cccc(-c3ccc(F)cc3)c2)C1", "note": "(stereo unspecified)", "Potency": "inconclusive: 30.1 µM [inhibitor, partial curve, poor fit]"}, {"molecule": "C/C(=N\\NC(=O)c1ccc(NS(=O)(=O)c2cccs2)cc1)c1ccc2c(c1)OCO2", "Potency": "inconclusive: 16.9 µM [inhibitor, partial curve]"}, {"molecule": "[O-][N+]1=c2ccc(Nc3ccccc3)cc2=NC12CCCCC2", "Potency": "inconclusive: 37.9 µM [inhibitor, partial curve, poor fit]"}, {"molecule": "Cc1cc(NC(=O)Nc2ccccc2[N+](=O)[O-])no1", "Potency": "inconclusive: 30.1 µM [inhibitor, single point]"}, {"molecule": "Cc1cc(C(=O)COC(=O)c2ccc(O)cc2)c(C)n1CC1CCCO1", "note": "(stereo unspecified)", "Potency": "active: 4.78 µM"}, {"molecule": "CCOc1ccc(-n2nc(CO)c(C(=O)NCc3ccccn3)n2)cc1", "Potency": "inconclusive: 19 µM [inhibitor, partial curve]"}, {"molecule": "CCCCC(NC(=O)c1ccc(Cl)cc1)C(=O)O", "note": "(stereo unspecified)", "Potency": "inconclusive: 26.9 µM [inhibitor, single point]"}, {"molecule": "Cc1ccc(Nc2nc(C(=O)NCC3CCCO3)cs2)cc1", "note": "(stereo unspecified)", "Potency": "inconclusive: 37.9 µM [inhibitor, single point]"}, {"molecule": "O=C(OCC(=O)c1c[nH]c2ccccc12)c1cc(S(=O)(=O)N2CCOCC2)ccc1F", "Potency": "inconclusive: 13.5 µM [inhibitor, partial curve]"}, {"molecule": "O=C(Oc1cccc(/C=N/Nc2nc(Nc3ccccc3)nc(N3CCOCC3)n2)c1)c1ccco1", "Potency": "active: 7.57 µM"}, {"molecule": "Cn1c(SCC(=O)Nc2nnc(-c3ccccc3)o2)nnc1C1CC1", "Potency": "active: 13.5 µM"}, {"molecule": "N#C/C(=C\\c1coc2ccccc2c1=O)C(N)=S", "Potency": "inconclusive: 30.1 µM [inhibitor, partial curve, poor fit]"}, {"molecule": "Cc1ccc(CN(C(=O)COc2ccccc2[N+](=O)[O-])c2ccccn2)cc1", "activity change, negative = inhibition": "inactive: -10.2%"}]}]}
